Experimental data taken from patent US9320760B2, “Compositions and methods of use of compounds to increase cancer patient survival time” (BioNumerik Pharmaceuticals, Inc., priority 2008, dated 2016).

Molecular target: T1, Thioredoxin Reductase + Thioredoxin (Bos taurus, UniProt O97680)
T1 sequence (O97680 1-105): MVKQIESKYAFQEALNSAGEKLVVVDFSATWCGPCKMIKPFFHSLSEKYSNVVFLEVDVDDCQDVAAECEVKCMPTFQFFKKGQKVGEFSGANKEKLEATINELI
Assay: NADPH oxidation at 340 nm, coupled thioredoxin (TX)/thioredoxin reductase (TXR)/NADPH system
Type: biochemical, bovine
Conditions: result in words
Protocol: Biochemistry 21:6628-6633 (1982).
Data was then collected and plotted in Microsoft Excel. Error calculations, and graphical representations were performed in Microsoft Excel and Kaleidograph (ver. 3.5). Nonlinear data was graphically rendered using Kaleidograph. ANOVA and other statistical analyses were performed using SAS (ver. 8.2). Unless otherwise noted, significance level was set at 0.05, and error bars represent actual experimental standard deviation.
It should be noted that for the purposes of FIG. 17 only, thioredoxin is labeled TXR and thioredoxin reductase is labeled TRR.
Table 4, below, illustrates that various Formula (I) compounds (i.e., disulfide-containing compounds) of the present invention can serve as alternate substrate inhibitors for the coupled thioredoxin (TX)/thioredoxin reductase (TXR)/NADPH system as measured by the oxidation of NADPH. In Table 4, the Formula (I) compounds were utilized at a concentration of 0.5 mM.

Compound	substrate (alternative substrate inhibitor) for thioredoxin / the coupled thioredoxin/thioredoxin reductase/NADPH system
NC(CCSSCCS(=O)(=O)O)C(=O)O (centres unmarked) [BNP7768]	substrates
N[C@@H](CSSCCS(=O)(=O)O)C(=O)NCC(=O)O [BNP7776]	substrates
N[C@@H](CCC(=O)N[C@@H](CSSCCS(=O)(=O)O)C(=O)NCC(=O)O)C(=O)O [BNP7772]	substrates
NC(CCC(=O)NC(CSSCCS(=O)(=O)O)C(=O)O)C(=O)O (centres unmarked) [BNP7774]	substrates
NC(CSSCCS(=O)(=O)O)C(=O)O (centres unmarked) [BNP7766]	substrates
